The text below walks through data of article PMC6919601, “Identification of Plasmodium dipeptidyl aminopeptidase allosteric inhibitors by high throughput screening” (PLoS ONE, 2019).

Structures are written as SMILES. In all, about 110,000 compounds went through this assay and about 230 (0.21%) showed an effect of 50% or more. Some of the results follow.
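Further: 30 min substrate incubation versus DMSO and 10 µM JCP410 controls.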

The target in the experiment is DPAP1 (Plasmodium falciparum, UniProt Q8IIJ9). The experiment is described as follows: primary screen, percent inhibition; read by cleavage of a fluorogenic dipeptide substrate; higher = more effect of the substance. On the set-up: species or system P. falciparum D10 trophozoite lysates; single well.
DPAP1, sequence (Q8IIJ9 whole entry, looked up): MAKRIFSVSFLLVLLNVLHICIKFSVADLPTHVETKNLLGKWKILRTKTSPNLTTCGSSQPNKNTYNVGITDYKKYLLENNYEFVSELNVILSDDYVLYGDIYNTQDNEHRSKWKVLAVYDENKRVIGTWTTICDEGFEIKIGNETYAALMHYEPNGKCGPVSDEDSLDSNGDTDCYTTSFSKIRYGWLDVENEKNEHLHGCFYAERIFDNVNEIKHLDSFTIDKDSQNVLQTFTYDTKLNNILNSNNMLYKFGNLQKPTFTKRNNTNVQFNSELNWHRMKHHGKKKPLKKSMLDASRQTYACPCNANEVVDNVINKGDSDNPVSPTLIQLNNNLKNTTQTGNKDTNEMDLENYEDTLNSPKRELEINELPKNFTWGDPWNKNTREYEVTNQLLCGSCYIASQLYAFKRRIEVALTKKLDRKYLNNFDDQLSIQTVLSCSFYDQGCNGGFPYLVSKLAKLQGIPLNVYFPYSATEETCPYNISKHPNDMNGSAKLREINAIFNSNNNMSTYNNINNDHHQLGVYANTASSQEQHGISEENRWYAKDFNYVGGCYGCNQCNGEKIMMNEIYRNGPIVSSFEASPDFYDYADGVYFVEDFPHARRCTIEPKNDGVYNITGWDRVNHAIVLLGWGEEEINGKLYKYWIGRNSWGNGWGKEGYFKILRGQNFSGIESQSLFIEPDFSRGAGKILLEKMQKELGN
As to `COc1ccc(CN2CCN(Cc3ccccc3Br)CC2)c(OC)c1OC`, the “% Inhibition @ 10 uM” value stood at 0.873%.
To `COc1cccc(OC)c1C(=O)Nc1sc2c(c1C#N)CCCC2` belongs -2.89%; to `COc1ccc(C2c3c(oc4ccc(C)cc4c3=O)C(=O)N2c2nccs2)cc1OC` (centres unmarked), 0.415%.
The figure for `Cc1cc(C(=O)O)ccc1-n1c(C)ccc1C` is 1.26%; for `CC(C)C[C@H](NC(=O)N1CCN(c2cccc(C(F)(F)F)c2)CC1)C(=O)NCC#N` it is -0.406%.
The figure for `Cc1nn(C)cc1CNC(=O)Nc1cccc(Cl)c1` is 2.65%; for `O=C(CCN1C(=O)C2C3C=CC(C3)C2C1=O)Nc1nnc(C(F)(F)F)s1` (centres unmarked) it is -0.551%; for `CCOc1ccc(CCNC(=O)CN2C(=O)CSc3nc(C)cc(C)c32)cc1` it is -6.01%.
For the compound `O=c1oc2ccccc2c(N(CCO)Cc2ccccc2)c1[N+](=O)[O-]`, the “% Inhibition @ 10 uM” value came to 7.96%.
To `COc1ccc(/C=C/c2nc(C#N)c(N3CCN(C)CC3)o2)cc1OC` belongs 5.68%; to `Cc1ccc(C2OC3(C(=O)c4ccccc4C3=O)C3C(=O)N(c4ccc(F)cc4)C(=O)C23)cc1` (centres unmarked), -5.49%.
To `Cc1cc(-c2ccccc2)c2c(n1)sc1c(O)cc(O)nc12` belongs 5.5%; to `CC(=O)c1c(C)cc2cc(C)cc(O)c2c1O`, -4.11%.
Regarding `O=S(=O)(c1cccc(C(F)(F)F)c1)N1CCOCC1`, the “% Inhibition @ 10 uM” value worked out at 4.83%.
Regarding `O=C1N=C(N2CCOCC2)S/C1=C/c1ccc(Cl)cc1`, the “% Inhibition @ 10 uM” value is on record as 4.8%.
To `NS(=O)(=O)c1ccc(NC(=S)NC(=O)c2ccc(F)cc2)cc1` belongs -1.29%; to `CC1=NN(C(=O)Cc2ccccc2)C(O)(c2cccnc2)C1` (centres unmarked), -1.28%; to `CC(=O)N1CCC2(CC1)OC(=O)C(C)=C2C(=O)NC1CCCC1`, -6.13%.
Turning to `CCOc1ccccc1C(=O)Nc1ccc(F)cc1F`, the “% Inhibition @ 10 uM” value was found to be 3.48%.
As for `Cc1cc2sc3nc(=O)c4cccnc4n3c2cc1C`, the “% Inhibition @ 10 uM” value is -2.82%.
To `CC(=O)Nc1ccc(C(=O)O)cc1[N+](=O)[O-]` belongs 1.45%.
To `Cc1ccc2[nH]c(SCc3ccccc3F)nc2c1` belongs 1.64%; to `O=c1oc2ccc(Cl)cc2n1Cc1ccccc1F`, 2.38%.
As for `Cn1nc(-c2ccc(OCC(=O)Nc3cccnc3)cc2)c2ccccc2c1=O`, the “% Inhibition @ 10 uM” value is reported as -3.23%.
As to `O=C(Nc1cccc(N2C(=O)C3C4CCC(C4)C3C2=O)c1)c1ccccc1` (centres unmarked), the “% Inhibition @ 10 uM” value is -5.23%.
In the case of `Cc1nn(Cc2ccc(C(=O)Nc3ccon3)o2)c(C)c1Br`, the “% Inhibition @ 10 uM” value was -1.55%.
Take `CCCOc1ccc(C(=O)Nc2cc(C)cc(C)c2)cc1`: the “% Inhibition @ 10 uM” value amounted to 4.57%.
Take `O=C(Nc1ccn(Cc2ccc(F)cc2)n1)C1CCCC1`: the “% Inhibition @ 10 uM” value amounted to 5.24%.
In the case of `COC(=O)C1=CN(Cc2ccc(Cl)cc2)C=C(C(=O)OC)C1c1ccc(OC)c(OC)c1OC`, the “% Inhibition @ 10 uM” value is given as 3.43%.
Regarding `COc1cccc(OC)c1C(=O)Nc1cc(C)ccc1C`, the “% Inhibition @ 10 uM” value turned out to be 2.22%.
The figure for `CCCCOc1ccc(C(C)NC(=O)c2ccc(CNS(=O)(=O)c3ccc(OC)cc3)cc2)cc1` (centres unmarked) is -3.35%; for `O=C(Nc1ccc(S(=O)(=O)N2CCCC2)cc1)C1CCCCC1` it is -4.02%.
Consider `O=C(c1ccc(S(=O)(=O)c2ccc(Cl)cc2)cc1)N1CCOCC1`, for which the “% Inhibition @ 10 uM” value is listed as -4.11%.
The figure for `Cc1nc(N2CCN(c3ncccn3)CC2)c2c3c(sc2n1)CCC3` is 9.48%; for `COc1cc(C2C(C#N)=C(N)Oc3[nH]nc(-c4ccc(Cl)s4)c32)ccc1O` (centres unmarked) it is -4.91%.
To `CCOC(=O)C1=C(C)N=c2s/c(=C\c3ccc(C)o3)c(=O)n2C1c1ccccc1` (centres unmarked) belongs 6.09%; to `COc1ccc2c(CNCc3ccc(C)o3)c(C(=O)O)[nH]c2c1`, -3.01%.
The figure for `Cc1ccc(CNC(=O)NCc2noc3ccccc23)cc1` is 2.49%; for `Cc1sc2ncnc(Oc3ccc4c(C)cc(=O)oc4c3)c2c1C` it is -4.98%; for `O=C1N=C(SCC(=O)N2CCN(C34CC5CC(CC(C5)C3)C4)CC2)NC(=O)C1Cc1ccccc1` (centres unmarked) it is -19.8%.
Consider `Cc1ccc(SCCC(=O)NCCC2=CCCCC2)cc1`, for which the “% Inhibition @ 10 uM” value is listed as -1.22%.
To `N#CC1=C(N)N(c2ccc(Br)cc2F)C2=C(C(=O)CCC2)C1c1cccs1` (centres unmarked) belongs -1.06%; to `CC(C)C(=O)Nc1c(-c2cccs2)nc2ccccn12`, 3.48%.
Take `C(=C\c1nc(-c2ccc(-n3cccc3)cc2)no1)/c1ccccc1`: the “% Inhibition @ 10 uM” value amounted to 1.19%.
As to `CCn1ncc(Br)c1C(=O)N(C)C12CC3CC(CC(C3)C1)C2`, the “% Inhibition @ 10 uM” value was 4%.
On to `Cc1cc(Cl)ccc1OCC(=O)NC(C)C1CC2CCC1C2` (centres unmarked), for which the “% Inhibition @ 10 uM” value is on record as -6.65%.
For the compound `CNc1ccccc1-c1nc2cc3ccccc3cc2n(C)c1=O`, the “% Inhibition @ 10 uM” value is -1.07%.
To `CC1CCC(NC2CCN(Cc3ccccc3)CC2)CC1` (centres unmarked) belongs -4.75%.
The figure for `COc1ccc(-c2nc3s/c(=C\C4=Cc5ccccc5OC4)c(=O)n3n2)cc1` is -1.52%; for `CC1NC(=O)N(C)C2NC(=O)N(C)C(c3ccccc3)C12` (centres unmarked) it is 2.26%; for `COc1ccc(C(=O)NC2CCCCC2)cc1S(=O)(=O)N1CCOCC1` it is 16.8%.
To `CC(NC(=O)C(C)n1c2ccccc2c2cnn(C)c(=O)c21)c1ccccc1` (centres unmarked) belongs 1.38%; to `N#CC1=C(SCC(N)=O)NC(=O)CC1c1ccc(Cl)cc1` (centres unmarked), 4.11%.
Turning to `Cc1nn(CC(=O)Nc2nc3ccccc3s2)c(C)c1Cl`, the “% Inhibition @ 10 uM” value is on record as 2.62%.
As for `O=C(CN1CCOCCOCCOCCOCC1)Nc1ccccc1`, the “% Inhibition @ 10 uM” value is reported as -8.37%.
The figure for `CS(=O)(=O)N(CCc1ccccc1)CC(=O)Nc1ccc2c(c1)OCCO2` is 5.17%; for `CC(=O)c1ccc(N2CCN(Cc3ccccc3C(F)(F)F)CC2)cc1` it is -2.02%; for `CCOc1ccc(C(=O)Nc2nnc(CC)s2)cc1Cl` it is 10.6%.
To `Cc1cc(C(NC(C)(C)C)C(=O)O)cc(C)c1O` (centres unmarked) belongs 5.42%; to `c1ccc2c(CCNCc3ccc4c(c3)OCO4)c[nH]c2c1`, 0.147%; to `CC(C)Oc1ccc(CNC(=O)CCn2cccn2)cc1`, -1.38%.
The figure for `COC(=O)c1ccc(C2CC(=O)NC3=C2C(=O)CC(c2cccs2)C3)cc1` (centres unmarked) is 2.54%; for `Cc1cc(C)c(OCC(=O)N2CCCC(C)C2)c(C)c1` (centres unmarked) it is -3.25%; for `Cc1ccc2c(Cl)c(C(=O)N(Cc3cccs3)C3CCS(=O)(=O)C3)sc2c1` (centres unmarked) it is 0.413%.
Consider `CSc1ccc(C2C(C#N)=C(N)Oc3cc(C)oc(=O)c32)cc1` (centres unmarked), for which the “% Inhibition @ 10 uM” value is reported as -2.32%.
To `CCOC(=O)c1c(NC(=O)COc2ccc(C(C)(C)C)cc2)sc2c1CCC2` belongs -0.769%; to `O=C(Nc1cc(-c2ccccc2)sc1C(=O)O)c1cccc(Cl)c1`, 2.84%.
To `COc1ccc(N2CCN(Cc3cc(OC)cc(OC)c3)CC2)cc1` belongs 3.65%; to `CC(C)C[C@H](NC(=O)OCc1ccccc1)C(=O)NC1(C#N)CCSCC1`, 0.173%; to `CCOC(=O)c1cc(-c2ccc(C)cc2)n(CC(=O)NCC2COc3ccccc3O2)c1C` (centres unmarked), 4.88%.
The figure for `O=[N+]([O-])c1cc2c(s1)CCCC/C2=N\O` is -2.7%; for `Cc1cc(C)n(Cc2ccc(C(=O)N3N=C(C(F)F)CC3(O)C(F)F)o2)n1` (centres unmarked) it is -2.85%; for `Cc1nc(SC(C)C(=O)O)nc(O)c1Cc1ccccc1` (centres unmarked) it is 0.658%.
For `CNC(=O)CN1C(=O)CSc2c1c(C)nn2-c1ccccc1`, the “% Inhibition @ 10 uM” value is given as -0.477%.
In the case of `Clc1ccc(-c2cc[nH]n2)cc1`, the “% Inhibition @ 10 uM” value was -0.447%.
Turning to `CCCC(=O)Nc1ccc(C(=O)Nc2ccccc2C(F)(F)F)cc1`, the “% Inhibition @ 10 uM” value was -0.545%.
Regarding `CC(Nc1cc(N2CCOCC2)ccc1[N+](=O)[O-])C12C[C@H]3C[C@@H](C1)C[C@@H](C2)C3` (some centres unmarked), the “% Inhibition @ 10 uM” value was -0.436%.
Consider `CC1=CC2=NC(=O)/C(=C\c3ccc(OCCOc4ccc(C)c(C)c4)c(Cl)c3)C(=N)N2O1`, for which the “% Inhibition @ 10 uM” value is -5.1%.
The figure for `CCOC(=O)c1cnn(CCOC(=O)c2cccc(F)c2)c1NC(=O)c1cccc(F)c1` is -1.21%; for `CCOc1ccccc1NC(=O)COc1ccc(Cl)cc1Cl` it is 3.29%; for `COc1cc(C=C2C(=O)c3ccccc3C2=O)ccc1O` it is -1.77%.
The figure for `COC(=O)c1cnn2c(O)c(Cc3ccccc3Cl)c(C)nc12` is -2.14%; for `N#C/C(=C\c1ccccc1Cl)c1nc(-c2ccc(Cl)cc2)cs1` it is -1.97%.
The figure for `Cc1ccc(-c2c(C)c(-c3ccccc3)nc(N)c2C#N)o1` is -1.33%; for `COc1cc(C(=O)Nc2ccc(Cl)cc2)cc(OC)c1OC` it is 0.231%.
In the case of `O=C(NCCCn1ccnc1)c1cc2nc(-c3ccc(Br)cc3)cc(C(F)(F)F)n2n1`, the “% Inhibition @ 10 uM” value is listed as -1.37%.
To `CC(=O)c1ccc(N2CCN(C(=O)c3cc(F)c(F)cc3Br)CC2)c(F)c1` belongs 3.29%.
To `Cc1ccc(-c2cc(C(F)F)n3ncc(C(=O)NC(C)c4ccccc4)c3n2)cc1` (centres unmarked) belongs 0.778%.
To `COc1ccc(C2OC(=O)Cc3cc(OC)c(OC)cc32)cc1` (centres unmarked) belongs 3.42%; to `COc1ccccc1OCc1ccc(C(=O)N2CCc3ccccc3C2)o1`, -3.13%.
Take `CCCCN1Cc2c(sc3c2CCCC3)N(C(C)=O)C1`: the “% Inhibition @ 10 uM” value came to 4.98%.
As to `Cc1ccccc1-c1nc2sc3c(c2c(=O)o1)CCCC3`, the “% Inhibition @ 10 uM” value is -3.5%.
The figure for `CCc1c(C)c(C#N)c2nc3ccccc3n2c1N(C)C` is -3.23%; for `COc1cccc(/C=C2\SC(=O)NC2=O)c1OCc1ccc(C(=O)O)cc1` it is -4.43%; for `OCCN1c2ccccc2CCc2ccccc21` it is -5.14%.
As to `COc1ccc2c3c([nH]c2c1)C(C)(C(=O)O)NCC3` (centres unmarked), the “% Inhibition @ 10 uM” value came to 0.627%.
In the case of `C/N=c1\c(NC(=O)c2ccccc2C)c(O)oc2ccccc12`, the “% Inhibition @ 10 uM” value was -2.78%.
To `O=C1CN(S(=O)(=O)c2ccc(Cl)cc2)CC(=O)N1CCc1ccccc1` belongs -3.52%; to `Cc1cc(C)cc(NC(=O)CN2CCCCC2)c1`, -6.25%; to `Cc1ccc(C(=O)NC(C)c2ccc3c(c2)OCO3)cc1` (centres unmarked), 0.709%.
For the compound `O=C1NC(=S)NC(=O)C1=Cc1ccccc1OCCO`, the “% Inhibition @ 10 uM” value is on record as -6.17%.
